Test results published in PubChem BioAssay AID588855 (National Center for Advancing Translational Sciences (NCATS), 2011).
The whole screen tested about 410,000 compounds, of which about 5,000 (1.2%) were called active. This list was built around the results that the source calls inconclusive (neither active nor inactive); the mix of calls is not that of the screen. The call rests on the fitted dose curve; in most records, active means well fitted inhibition curve with a large enough effect; inconclusive means small, poorly fitted or top-dose-only effect; inactive means no such curve, though single readings can be large or run the other way. Potencies beside an inconclusive call are fits to weak or partial responses and may not hold up.

Assay: qHTS for Inhibitors of TGF-b; further: nearly all actives have a fitted effect of over 65% in size
Details: HepG2 CAGA-GFP TGF-b/SMAD3 reporter, GFP fluorescence, 18 h, TGF-beta stimulated, 500 pg/mL final; series mostly up to 46.1 µM; activity, negative = inhibition: at the top concentration
Procedure, shortened: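 Using HEPG2 CAGA-GFP reporter cells at 1000 cells/well, we pinned test compounds, stimulated with recombinant TGF-beta (500 pg/mL final) and measured total well GFP after 18 h.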
On the % scale 0 is the no-effect control and ±100 the full control effect; potency means the concentration at half of the fitted maximal effect; tags describe the fitted curve by direction and shape.

Compound | Potency | activity, negative = inhibition
OC(COc1ccccc1)Cn1c2ccccc2c2ccccc21 (centres undefined) | inconclusive: 15.8 µM [inhibitor, single point] | –
O=C(CCN1C(=O)COc2ccccc21)NCCN1CCN(c2ccccc2F)CC1 | – | inactive: 0.62%
CC(C)(C)c1ccc(C(=O)N2CCC2(C)C(=O)NS(=O)(=O)c2ccc(C#N)cc2)cc1 (centres undefined) | – | inactive: -8.8%
OC(c1ccccc1)c1nc(/C=C/c2ccc(C(F)(F)F)cc2)cs1 (centres undefined) | inconclusive: 22.4 µM [inhibitor, single point] | –
Cc1cccc(-n2c(N)cc(=O)[nH]c2=S)c1C | – | inactive: 6.97%
CC1=C(C(=O)OCC2CCCCC2)C(c2ccccc2F)CC(=O)N1 (centres undefined) | inconclusive: 2.24 µM [inhibitor, partial curve, poor fit] | –
COc1ccccc1CNC(=O)C1CCCN(c2nnc(-n3c(C)ccc3C)s2)C1 (centres undefined) | inconclusive: 4.47 µM [inhibitor, full curve, poor fit] | –
CC1(C)CCC[C@]2(C)[C@H]3Cc4cc(O)ccc4O[C@]3(C)CC[C@@H]12 | inconclusive: 12.6 µM [inhibitor, single point] | –
Cc1ccc(C(=O)c2cc(C)sc2N)cc1 | inconclusive: 35.5 µM [inhibitor, single point] | –
CCN(CC)CCn1c(NCc2nc3ccccc3n2Cc2ccccc2)nc2ccccc21 | inconclusive: 20 µM [inhibitor, single point] | –
C[C@@H]1CCCCO[C@H](CN(C)C(=O)Nc2ccc(F)cc2)[C@@H](C)CN([C@H](C)CO)C(=O)c2cc(N(C)C)ccc2O1 | – | inactive: -5.03%
CCOc1ccc(OCC)c(S(=O)(=O)n2cnc(C)c2)c1 | – | inactive: -9.24%
O=C(Nc1ccc(Oc2ccccc2)cc1)c1ccc(Cn2c(=O)[nH]c3ccsc3c2=O)cc1 | inconclusive: 35.5 µM [inhibitor, single point] | –
Cc1ccc(S(=O)(=O)/C(C#N)=C/c2c(N3CCN(C)CC3)nc3ccccn3c2=O)cc1 | – | inactive: 8.21%
C[C@@H]1CCCCO[C@@H](CN(C)C(=O)C2CCCCC2)[C@@H](C)CN([C@H](C)CO)C(=O)c2cc(NC(=O)NC3CCCCC3)ccc2O1 | – | inactive: -7.98%
CCOc1ccc(N(CC(=O)NC(C(C)C)C(C)C)S(=O)(=O)c2ccc(OC)c(OC)c2)cc1 | inconclusive: 2.51 µM [inhibitor, partial curve] | –
CC(=O)c1c(C)[nH]c(C(=O)OCC(=O)N2CCc3ccccc3C2)c1C | – | inactive: -8.53%
O=C(CSc1nc(=O)[nH]c2c1CCCC2)Nc1ccccc1C(F)(F)F | – | inactive: 18.8%
CCOC(=O)C1CCN(CCC(=O)Nc2ccc(Br)c(C)c2)CC1 | inconclusive: 7.94 µM [inhibitor, partial curve, poor fit] | –
COc1ccc(N(CCC(=O)NCCc2ccccc2)S(=O)(=O)c2ccc(C)cc2C)cc1 | inconclusive: 20 µM [inhibitor, single point] | –
Cc1ccc(NC(=O)C(NS(=O)(=O)c2ccc3c(c2)CCC(=O)N3)c2ccccc2)cc1C (centres undefined) | inconclusive: 35.5 µM [inhibitor, single point] | –
Cc1c(NC(=O)CSc2cccc3cccnc23)c(=O)n(-c2ccccc2)n1C | inconclusive: 35.5 µM [inhibitor, partial curve, poor fit] | –
COC(=O)C1=C(C)N(Cc2ccccc2)C(=S)N[C@H]1c1cccc(F)c1 | inconclusive: 14.1 µM [inhibitor, single point] | –

Compound | Potency | activity, negative = inhibition
COc1ccc(Cc2nnc(N/N=C/c3ccc(Br)cc3)[nH]c2=O)cc1OC | – | inactive: -0.461%
COCCCNC(=O)C1CCCN(S(=O)(=O)c2ccc(C)cc2)C1 (centres undefined) | inconclusive: 22.4 µM [inhibitor, single point] | –
Cn1ncc2c(N3CCN(c4ccc(Cl)c(Cl)c4)CC3)ncnc21 | inconclusive: 2.82 µM [inhibitor, partial curve, poor fit] | –
CN1C(=O)C(Cc2cnc[nH]2)NC1=S (centres undefined) | – | inactive: -0.17%
Cc1ccc(Cl)cc1NC(=O)Nc1cccs1 | inconclusive: 35.5 µM [inhibitor, single point] | –
COCc1c(C(=O)OCC(=O)NCc2ccco2)oc2ccccc12 | – | inactive: 3.12%
CCNc1nc(NCC)nc(C(=O)Nc2ccccc2)n1 | inconclusive: 11.2 µM [inhibitor, partial curve, poor fit] | –
Cc1[nH]n(-c2ccc(F)cc2)c(=O)c1/C=N/c1sc2c(c1C#N)CCCC2 | inconclusive: 2.82 µM [inhibitor, single point] | –
O=C(NC1CCCC1)c1ccc(Cl)s1 | – | inactive: -3.13%
CCCN(CCC)C(=O)c1cc([N+](=O)[O-])cc2c1-c1ccc([N+](=O)[O-])cc1C2=C(C#N)C#N | – | inactive: -12.6%
O=C1CCCC(NCCCCCCNC2=C([N+](=O)[O-])C(=O)CCC2)=C1[N+](=O)[O-] | inconclusive: 5.01 µM [inhibitor, full curve, poor fit] | –
COc1cc(NC(=O)Cn2nc(C(F)(F)F)c3c2CCCC3)c(OC)cc1Cl | inconclusive: 10 µM [inhibitor, partial curve] | –
O=C1CCCC2=C1C(c1ccc(Br)cc1)c1c([nH]c(=S)[nH]c1=O)N2 (centres undefined) | inconclusive: 17.8 µM [inhibitor, single point] | –
COc1cc(C=O)ccc1OCc1cccc(Br)c1 | – | inactive: -0.522%
COc1cccc(OC)c1OCCOCCn1cnc2ccccc2c1=O | inconclusive: 14.1 µM [inhibitor, single point] | –
O=C(CSc1n[nH]c(-c2ccccc2)n1)Nc1ncc(Br)cc1Br | inconclusive: 35.5 µM [inhibitor, single point] | –
Cc1ccccc1-c1ccc(CN2C(C(C)C)C(=O)N(Cc3cn(CCC4OCCO4)nn3)CCS2(=O)=O)cc1 (centres undefined) | inconclusive: 35.5 µM [inhibitor, single point] | –
CC1CN(CC(=O)Nc2nc(-c3ccc(Cl)cc3)cs2)CC(C)O1 (centres undefined) | inconclusive: 5.01 µM [inhibitor, partial curve, poor fit] | –
COc1cccc(C(=O)c2c[nH]c(C(=O)NCc3cccnc3)c2)c1 | – | inactive: -27.2%
CCOc1cc(N2CCOCC2)c(OCC)cc1NC(=O)COC(=O)CCOc1ccc(C)cc1 | – | inactive: 8.45%
O=C1N[C@@H](c2ccccc2)COC(=O)[C@H](Cc2ccc(F)cc2)CC/C=C/C[C@H]1CC(=O)N(CCO)Cc1ccccc1 | inconclusive: 14.1 µM [inhibitor, single point] | –
COc1ccc(Br)cc1S(=O)(=O)NNC(=O)c1c(C)nc2ccccn12 | – | inactive: 1.82%
O=C(Nc1cccc(C(F)(F)F)c1)C1CCCN1S(=O)(=O)c1cccc2cccnc12 (centres undefined) | – | inactive: -4.04%

Compound | Potency | activity, negative = inhibition
Cc1nn2c(=O)cc(COC(=O)c3cccc(NC(=O)c4cccs4)c3)nc2s1 | inconclusive: 35.5 µM [inhibitor, single point] | –
CCCCNC(C(=O)Nc1ccc([N+](=O)[O-])cc1Br)c1ccccc1 (centres undefined) | inconclusive: 35.5 µM [inhibitor, single point] | –
O=C(c1ccc(Cl)cc1)N(Cc1cccs1)C1CCS(=O)(=O)C1 (centres undefined) | inconclusive: 10 µM [inhibitor, single point] | –
Cc1ccc(S(=O)(=O)Cn2nnnc2CN(Cc2ccco2)CC2CCCO2)cc1 (centres undefined) | – | inactive: 12.7%
CCOc1ccc(NS(=O)(=O)c2ccc3[nH]c4c(c3c2)CCCC4)cc1 | active: 11.2 µM | –
COc1ccc(CC(=O)NC(=S)Nc2ccc(S(=O)(=O)NC(C)(C)C)cc2)cc1 | inconclusive: 0.112 µM [inhibitor, full curve, poor fit] | –
COc1ccc2[nH]c(CN3CCC(CO)(CCOc4ccccc4)CC3)c(C)c2c1 | inconclusive: 0.112 µM [inhibitor, full curve, poor fit] | –
COCCNC(=O)c1cn(C)c2ccc(S(=O)(=O)N3CCCCC3)cc2c1=O | – | inactive: -23.8%
COc1ccc(NC(=O)CS(=O)(=O)Cc2nc(-c3ccc(C)cc3)oc2C)cc1 | – | inactive: -6.8%
O=C(/C=C/c1ccccc1Cl)NCc1ccco1 | inconclusive: 15.8 µM [inhibitor, single point] | –
O=S(=O)(NCc1csc(-c2cccs2)n1)c1ccc(Cl)cc1 | inconclusive: 0.501 µM [inhibitor, full curve, poor fit] | –
O=C(NC1CCCCC1)C1CCCN(c2nnnn2-c2ccccc2)C1 (centres undefined) | – | inactive: -0.954%
CCOC(=O)c1ccc(N2C(=O)c3n[nH]c(-c4ccco4)c3C2c2ccc(O)c(OCC)c2)cc1 (centres undefined) | active: 15.8 µM | –
Cc1cccc(Nc2nnc(-c3ccc(C)c(S(=O)(=O)NCC4CCCO4)c3)c3ccccc23)c1 (centres undefined) | inconclusive: 7.08 µM [inhibitor, partial curve, poor fit] | –
O=C1CC(c2nnc(Cc3ccc(F)cc3Cl)o2)CN1c1ccccc1 (centres undefined) | – | inactive: -33.4%
CN(Cc1ccccc1)Cc1cc(=O)oc2ccc3ccccc3c12 | inconclusive: 35.5 µM [inhibitor, single point] | –
COc1ccc(C2(CNC(C)=O)CCOCC2)cc1OC | – | inactive: -18.5%
C#CCN(CC=C)C(=O)c1ccc2nc(C3CCCCC3)oc2c1 | – | inactive: 2.57%
Cc1cccc(-n2c(Cc3ccccc3)nnc2SCc2nc(-c3cccs3)no2)c1 | active: 12.6 µM | –
O=C1c2[nH]nc(-c3ccccc3O)c2C(c2ccccc2F)N1Cc1cccnc1 (centres undefined) | – | inactive: -14.9%
CCC(=O)N1CCN(c2ccc(NC(=O)c3cc4ccccc4o3)cc2Cl)CC1 | inconclusive: 20 µM [inhibitor, single point] | –
COc1ccccc1NS(=O)(=O)c1ccc(/C=C/C(=O)N2CCN(C(C)=O)CC2)cc1 | inconclusive: 15.8 µM [inhibitor, single point] | –
O=C(NC1CCCCC1)c1ccc(CSc2nc3cccnc3n2Cc2ccc(F)cc2)cc1 | inconclusive: 15.8 µM [inhibitor, partial curve] | –
